# Results as given in article PMC4336329 (PLoS ONE, 2015).
# About 2,200 (0.71%) of roughly 310,000 compounds showed an effect of 50% or more. The effect is printed as a negative number. The list shows a part of the results.
# Target: human ether-à-go-go-related gene (hERG) potassium channel (human, UniProt Q12809)
# Test: primary screen, population patch clamp on CHO cells stably expressing hERG
# Sequence of human ether-à-go-go-related gene (hERG) potassium channel (Q12809 whole entry, looked up): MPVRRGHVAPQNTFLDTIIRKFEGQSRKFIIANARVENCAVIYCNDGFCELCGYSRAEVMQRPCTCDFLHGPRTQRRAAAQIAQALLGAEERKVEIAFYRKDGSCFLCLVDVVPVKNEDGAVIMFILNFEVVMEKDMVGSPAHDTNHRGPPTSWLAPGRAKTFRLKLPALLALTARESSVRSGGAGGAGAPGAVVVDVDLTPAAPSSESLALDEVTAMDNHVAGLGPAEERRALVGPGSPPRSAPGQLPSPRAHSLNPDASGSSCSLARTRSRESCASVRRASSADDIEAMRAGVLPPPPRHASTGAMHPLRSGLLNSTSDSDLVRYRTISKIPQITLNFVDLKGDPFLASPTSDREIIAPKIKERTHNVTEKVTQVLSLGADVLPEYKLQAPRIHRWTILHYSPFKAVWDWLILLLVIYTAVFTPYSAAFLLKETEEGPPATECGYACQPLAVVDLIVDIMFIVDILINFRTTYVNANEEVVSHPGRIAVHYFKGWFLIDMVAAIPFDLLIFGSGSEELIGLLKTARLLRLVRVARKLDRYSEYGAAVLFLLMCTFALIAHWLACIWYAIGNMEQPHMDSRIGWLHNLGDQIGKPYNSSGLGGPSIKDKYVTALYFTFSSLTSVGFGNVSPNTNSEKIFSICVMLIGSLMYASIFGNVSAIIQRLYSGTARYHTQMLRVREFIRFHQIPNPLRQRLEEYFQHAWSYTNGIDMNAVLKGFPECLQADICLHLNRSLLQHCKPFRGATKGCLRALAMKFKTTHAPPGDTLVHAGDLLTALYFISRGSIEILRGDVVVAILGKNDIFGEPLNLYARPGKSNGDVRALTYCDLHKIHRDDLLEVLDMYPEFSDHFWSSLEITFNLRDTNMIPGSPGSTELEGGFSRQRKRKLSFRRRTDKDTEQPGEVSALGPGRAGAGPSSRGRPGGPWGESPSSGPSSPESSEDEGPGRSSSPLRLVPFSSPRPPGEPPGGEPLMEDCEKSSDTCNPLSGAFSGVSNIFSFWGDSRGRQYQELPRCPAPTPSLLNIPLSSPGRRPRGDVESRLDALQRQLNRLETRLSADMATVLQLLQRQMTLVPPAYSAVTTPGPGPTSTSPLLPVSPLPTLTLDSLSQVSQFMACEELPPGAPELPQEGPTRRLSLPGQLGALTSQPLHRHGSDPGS
row,SMILES,"hERG current change (%, negative = inhibition) at 1uM"
1,CC(C)(C)C(C(=O)Oc1ccccc1)c1ccccc1 (stereo not shown),14.1%
2,CCn1c(NC(=O)c2ccco2)c(-c2ccccc2Cl)c(=O)c2ccccc21,20.9%
3,NC(=O)C1CCN(C(=O)COc2ccc3c(c2)oc(=O)c2ccccc23)CC1,8.66%
4,CCN1CCN(Cc2ccc(NC(=O)c3cc(NC(=O)c4cc(C)on4)cc(OC)c3)cc2C(F)(F)F)CC1.O=C(O)C(F)(F)F,4.37%
5,Cc1ccc(-c2noc(CN(C(=O)c3cccc(Br)c3)C(C)C)n2)cc1,9.52%
6,COc1ccc(N2CCN(Cc3nc4ccccc4c(=O)[nH]3)CC2)cc1,6%
7,COc1ccccc1-c1c(C(F)(F)F)oc2cc(OCC(=O)Nc3ccccc3C(F)(F)F)ccc2c1=O,-4.75%
8,CCOC(=O)c1nn(-c2ccccc2)c(=O)cc1SC(C)C,-10.4%
9,Cc1ccc(NC(=O)c2ccccc2NS(=O)(=O)c2ccc(F)cc2)cc1S(=O)(=O)N1CCCCC1,3.9%
10,Cc1cccc(Cc2cnc(NC(=O)CN3C(=O)/C(=C/c4ccccc4)SC3=S)s2)c1,11.5%
11,O=C(N=Nc1c(O)[nH]c2ccccc12)c1ccc(CN2CCOCC2)cc1,13.7%
12,CCc1ccc(-n2c(=O)c3c(C)c(C(=O)N(C)C)sc3n(CC(=O)NCc3ccco3)c2=O)cc1,1.24%
13,Cc1sc(NC(=O)c2cccc(N3C(=O)CCC3=O)c2)nc1-c1ccccc1,6.31%
14,Cc1cc(C)c(C#N)c(SCC(O)COc2ccc(Br)cc2)n1 (stereo not shown),16.5%
15,CCOCCCNS(=O)(=O)c1cc2[nH]c3c(c2cc1C)C(=O)CC(C)(C)C3,7.16%
16,CCc1c(C)sc(NC(=O)c2noc(C)c2[N+](=O)[O-])c1C#N,6.75%
17,CC(=O)c1cccc(NC(=O)C(C)OC(=O)Cc2n[nH]c(=O)c3ccccc23)c1 (stereo not shown),16.5%
18,COC1CCN(C(=O)c2ccc3oc(C(C)C)nc3c2)CC1,11.8%
19,Cc1ccc(-c2cc(-c3ccccc3)cc(-c3ccccc3)[n+]2-c2ccccc2)cc1.[O-][Cl+3]([O-])([O-])[O-],-80.4%
20,N#Cc1cc(S(=O)(=O)c2ccc(F)cc2)c(N)[nH]c1=O,7.94%
21,O=S(=O)(NCc1cccnc1)c1ccc(Cl)c2ccccc12,11.2%
22,O=[N+]([O-])c1cccc(/C=C/c2nc(C=Nc3ccc4ccccc4c3)c(O)o2)c1,-4.85%

row,SMILES,"hERG current change (%, negative = inhibition) at 1uM"
1,N#CCN1C(=O)C2CCCN2c2ccc(S(=O)(=O)N3CCOCC3)cc21 (stereo not shown),18.2%
2,CC(=O)N1CCc2cc(S(=O)(=O)NCCC(=O)N3CCN(Cc4ccccc4)CC3)ccc21,-7.96%
3,CN(C(=O)COC(=O)CNC(=O)C12CC3CC(CC(C3)C1)C2)c1ccccc1,-3.57%
4,COc1ccc2nc(C)cc(Nc3ccc(N4CCN(C)CC4)cc3)c2c1,4.39%
5,COc1ccc(Cc2nnc(Nc3ccc(C)cc3)o2)cc1OC,11.4%
6,CCN(CC)c1ccc(C(=O)OCc2c(C)noc2C)cc1,12.9%
7,CCOC(=O)c1[nH]c(Cc2[nH]c(C(=O)OCC)c(C)c2CCC(=O)OC)c(CCC(=O)OC)c1C,0.391%
8,CC(=O)N(C1=C(N2CCOCC2)C(=O)c2ccccc2C1=O)c1ccc(C(=O)O)cc1,22.5%
9,CC(C)Cc1nc(SCc2cccnc2)c2c(=O)n(C)c(=O)n(C)c2n1,9.57%
10,C=CCNC(=O)NC(=O)COn1nnc2ccc(S(=O)(=O)N(C)C)cc21,14.7%
11,COc1ccc(C(=O)CSc2nc3ccccc3n2CC(=O)c2ccccc2)cc1,1.75%
12,Cc1ccc2[nH]cc(CCNC(=O)c3cccs3)c2c1,9.49%
13,CCOc1ccc(C(C(=O)NC2CCCCC2)N(C(=O)c2csnn2)C2CC2)cc1 (stereo not shown),13.2%
14,Cc1ccccc1NC(=O)CNC(=O)Cc1cccc2ccccc12,14.5%
15,COc1cc(OC)cc(-c2n[nH]c(=S)n2-c2cc(OC)ccc2OC)c1,-9.86%
16,Cc1cc2c(cc1C)NC(=O)CC(C(F)(F)C(F)(F)C(F)(F)F)=N2,9.28%
17,CCOc1cc(C(=O)Nc2ccc(S(=O)(=O)N3CCOCC3)cc2)cc(OCC)c1OCC,7.84%
18,Cc1ccc(-n2nc3c(=O)n(CCCC(=O)NC4CCC(C)CC4)nc(C)c3c2C)cc1 (stereo not shown),9.74%
19,CC(C)(C)NS(=O)(=O)c1ccc(/C=C/C(=O)O)cc1,14.7%
20,COc1ccc(Oc2nc(Oc3ccc(OC)cc3)nc(Oc3ccc(OC)cc3)n2)cc1,-7.77%
21,O=C(Nc1nnc(C2CC2)s1)c1ccc(Cl)nc1,5.26%
